In the supplement of paper PMC4967469:
By IC50 is meant the dose at which the fit gives 50% viability; where the fit passes the top or lowest dose, that dose stands as a limit. AUC sums up the same curve from the lowest dose to the 256-fold higher top dose; it is 1 without any effect and falls as sensitivity rises. Where the top dose is marked as inferred, it is not printed in the source and was worked back from the curve model. For some assays here: Drugs with an entry number were screened twice under separate entries, and the two screens often disagree.

Compound: Cc1ccc(-n2nc(C(C)(C)C)cc2NC(=O)Nc2ccc(OCCN3CCOCC3)c3ccccc23)cc1 [BIRB 0796]
Test: Viability of human cancer cell lines after 72 h of drug (GDSC screen)
Settings: top dose 10 µM; top dose inferred
Experimental: (§1)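 Human cancer cell lines in 384-well plates, medium with 10% serum, drug for 72 h over a 256-fold dose range (nine 2-fold or five 4-fold steps up to the top dose). Adherent lines were fixed and stained with the nucleic acid dye Syto60, suspension lines read with resazurin; signal relative to control wells, capped at 0 and 100%. One two-parameter sigmoid per drug and line, fitted in a mixed model over all curves with the slope shared within a line.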

Cell Line	AUC	IC50
ES6 (Ewing sarcoma, adherent)	0.94	> 10 µM
ES7 (Ewing sarcoma, adherent)	0.957	> 10 µM
ES-2 (ovary, adherent)	0.959	> 10 µM
ETK-1 (biliary tract, adherent)	0.982	> 10 µM
EVSA-T (breast, adherent)	0.926	> 10 µM
EW-1 (Ewing sarcoma, semi-adherent)	0.982	> 10 µM
EW-11 (Ewing sarcoma, adherent)	0.958	> 10 µM
EW-16 (Ewing sarcoma, adherent)	0.931	> 10 µM
EW-24 (Ewing sarcoma, semi-adherent)	0.989	> 10 µM
EoL-1-cell (haematopoietic neoplasm, suspension)	0.616	1.25 µM
Farage (B-cell lymphoma, suspension)	0.973	> 10 µM
GB-1 (glioma, adherent)	0.924	> 10 µM
GI-1 (glioma, adherent)	0.969	> 10 µM
GI-ME-N (neuroblastoma, adherent)	0.966	> 10 µM
GR-ST (lymphoblastic leukaemia, suspension)	0.979	> 10 µM
GRANTA-519 (B-cell lymphoma, suspension)	0.982	> 10 µM
GT3TKB (stomach, adherent)	0.99	> 10 µM
H9 (lymphoid neoplasm, suspension)	0.991	> 10 µM
HCC2157 (breast, suspension)	0.987	> 10 µM
HCC2218 (breast, suspension)	0.982	> 10 µM

Compound: COc1cc(N2CCN(C)CC2)ccc1Nc1ncc2c(n1)N(C)c1ccccc1C(=O)N2C [XMD8-85]
Test: as above
Settings: top dose 8 µM; top dose inferred
Experimental: as §1

Cell Line	AUC	IC50
ES6 (Ewing sarcoma, adherent)	0.865	> 8 µM
ES7 (Ewing sarcoma, adherent)	0.898	> 8 µM
ES-2 (ovary, adherent)	0.986	> 8 µM
ETK-1 (biliary tract, adherent)	0.778	3.69 µM
EVSA-T (breast, adherent)	0.937	> 8 µM
EW-1 (Ewing sarcoma, semi-adherent)	0.752	2.46 µM
EW-11 (Ewing sarcoma, adherent)	0.828	7.04 µM
EW-16 (Ewing sarcoma, adherent)	0.882	> 8 µM
EW-24 (Ewing sarcoma, semi-adherent)	0.991	> 8 µM
EoL-1-cell (haematopoietic neoplasm, suspension)	0.906	> 8 µM
Farage (B-cell lymphoma, suspension)	0.982	> 8 µM
GB-1 (glioma, adherent)	0.923	> 8 µM
GI-1 (glioma, adherent)	0.864	6.5 µM
GI-ME-N (neuroblastoma, adherent)	0.589	0.96 µM
GR-ST (lymphoblastic leukaemia, suspension)	0.869	> 8 µM
GRANTA-519 (B-cell lymphoma, suspension)	0.975	> 8 µM
GT3TKB (stomach, adherent)	0.946	> 8 µM
H9 (lymphoid neoplasm, suspension)	0.708	1.7 µM
HCC2157 (breast, suspension)	0.908	> 8 µM
HCC2218 (breast, suspension)	0.976	> 8 µM

Compound: CNC(=O)c1ccc(Nc2cc(Nc3ccccc3S(=O)(=O)C(C)C)c3cc[nH]c3n2)nc1 [HG-5-113-01]
Test: as above
Settings: top dose 10 µM; top dose inferred
Experimental: as §1

Cell Line	AUC	IC50
ES6 (Ewing sarcoma, adherent)	0.795	5.92 µM
ES7 (Ewing sarcoma, adherent)	0.537	0.789 µM
ES-2 (ovary, adherent)	0.955	> 10 µM
ETK-1 (biliary tract, adherent)	0.777	4.57 µM
EVSA-T (breast, adherent)	0.825	4.91 µM
EW-1 (Ewing sarcoma, semi-adherent)	0.753	3.11 µM
EW-11 (Ewing sarcoma, adherent)	0.624	1.52 µM
EW-16 (Ewing sarcoma, adherent)	0.67	1.9 µM
EW-24 (Ewing sarcoma, semi-adherent)	0.819	4.81 µM
EoL-1-cell (haematopoietic neoplasm, suspension)	0.49	0.59 µM
Farage (B-cell lymphoma, suspension)	0.992	> 10 µM
GB-1 (glioma, adherent)	0.768	4.42 µM
GI-1 (glioma, adherent)	0.66	1.7 µM
GI-ME-N (neuroblastoma, adherent)	0.598	1.28 µM
GR-ST (lymphoblastic leukaemia, suspension)	0.731	3.32 µM
GRANTA-519 (B-cell lymphoma, suspension)	0.883	8.87 µM
GT3TKB (stomach, adherent)	0.751	2.95 µM
H9 (lymphoid neoplasm, suspension)	0.671	1.7 µM
HCC2157 (breast, suspension)	0.781	4.36 µM
HCC2218 (breast, suspension)	0.828	8.42 µM

Compound: COc1cc(-c2nn([C@H]3CC[C@H](N4CCN(C(C)=O)CC4)CC3)c3ncnc(N)c23)ccc1NC(=O)c1cc2ccccc2n1C [A-770041]
Test: as above
Settings: top dose 5.12 µM; top dose inferred
Experimental: as §1

Cell Line	AUC	IC50
ES6 (Ewing sarcoma, adherent)	0.653	0.945 µM
ES7 (Ewing sarcoma, adherent)	0.954	> 5.12 µM
ES-2 (ovary, adherent)	0.991	> 5.12 µM
ETK-1 (biliary tract, adherent)	0.48	0.279 µM
EVSA-T (breast, adherent)	0.917	> 5.12 µM
EW-1 (Ewing sarcoma, semi-adherent)	0.983	> 5.12 µM
EW-11 (Ewing sarcoma, adherent)	0.967	> 5.12 µM
EW-16 (Ewing sarcoma, adherent)	0.799	2.58 µM
EW-24 (Ewing sarcoma, semi-adherent)	0.97	> 5.12 µM
EoL-1-cell (haematopoietic neoplasm, suspension)	0.841	2.98 µM
Farage (B-cell lymphoma, suspension)	0.419	0.2 µM
GB-1 (glioma, adherent)	0.544	0.432 µM
GI-1 (glioma, adherent)	0.773	1.9 µM
GI-ME-N (neuroblastoma, adherent)	0.626	0.808 µM
GR-ST (lymphoblastic leukaemia, suspension)	0.969	> 5.12 µM
GRANTA-519 (B-cell lymphoma, suspension)	0.973	> 5.12 µM
GT3TKB (stomach, adherent)	0.987	> 5.12 µM
H9 (lymphoid neoplasm, suspension)	0.939	> 5.12 µM
HCC2157 (breast, suspension)	0.986	> 5.12 µM
HCC2218 (breast, suspension)	0.814	3.72 µM

Compound: O=C(c1cc(Cc2n[nH]c(=O)c3ccccc23)ccc1F)N1CCN(C(=O)C2CC2)CC1 [Olaparib]
Test: as above
Settings: top dose 5 µM; screen: GDSC drug entry 1017; top dose inferred
Experimental: as §1

Cell Line	AUC	IC50
ES6 (Ewing sarcoma, adherent)	0.982	> 5 µM
ES7 (Ewing sarcoma, adherent)	0.873	> 5 µM
ES-2 (ovary, adherent)	0.988	> 5 µM
ETK-1 (biliary tract, adherent)	0.91	> 5 µM
EVSA-T (breast, adherent)	0.991	> 5 µM
EW-1 (Ewing sarcoma, semi-adherent)	0.921	> 5 µM
EW-11 (Ewing sarcoma, adherent)	0.846	> 5 µM
EW-16 (Ewing sarcoma, adherent)	0.895	> 5 µM
EW-24 (Ewing sarcoma, semi-adherent)	0.982	> 5 µM
EoL-1-cell (haematopoietic neoplasm, suspension)	0.922	> 5 µM
Farage (B-cell lymphoma, suspension)	0.988	> 5 µM
GB-1 (glioma, adherent)	0.902	> 5 µM
GI-1 (glioma, adherent)	0.943	> 5 µM
GI-ME-N (neuroblastoma, adherent)	0.934	> 5 µM
GR-ST (lymphoblastic leukaemia, suspension)	0.936	> 5 µM
GRANTA-519 (B-cell lymphoma, suspension)	0.991	> 5 µM
GT3TKB (stomach, adherent)	0.961	> 5 µM
H9 (lymphoid neoplasm, suspension)	0.992	> 5 µM
HCC2157 (breast, suspension)	0.983	> 5 µM
HCC2218 (breast, suspension)	0.975	> 5 µM

Same assay, conditions: top dose 10 µM; screen: GDSC drug entry 1495

Cell Line	AUC	IC50
ES6 (Ewing sarcoma, adherent)	0.963	> 10 µM
ES7 (Ewing sarcoma, adherent)	0.664	1.81 µM
ES-2 (ovary, adherent)	0.976	> 10 µM
ETK-1 (biliary tract, adherent)	0.89	> 10 µM
EVSA-T (breast, adherent)	0.946	> 10 µM
EW-1 (Ewing sarcoma, semi-adherent)	0.79	4.05 µM
EW-11 (Ewing sarcoma, adherent)	0.876	> 10 µM
EW-16 (Ewing sarcoma, adherent)	0.804	5.28 µM
EW-24 (Ewing sarcoma, semi-adherent)	0.988	> 10 µM
EoL-1-cell (haematopoietic neoplasm, suspension)	0.956	> 10 µM
Farage (B-cell lymphoma, suspension)	0.99	> 10 µM
GB-1 (glioma, adherent)	0.918	> 10 µM
GI-1 (glioma, adherent)	0.875	9.14 µM
GI-ME-N (neuroblastoma, adherent)	0.747	4.23 µM
GR-ST (lymphoblastic leukaemia, suspension)	0.849	> 10 µM
GRANTA-519 (B-cell lymphoma, suspension)	0.971	> 10 µM
GT3TKB (stomach, adherent)	0.777	3.54 µM
H9 (lymphoid neoplasm, suspension)	0.988	> 10 µM
HCC2157 (breast, suspension)	0.982	> 10 µM
HCC2218 (breast, suspension)	0.978	> 10 µM

Compound: Cc1cc(N2CCOCC2)cc2[nH]c(-c3c(NC[C@@H](O)c4cccc(Cl)c4)cc[nH]c3=O)nc12 [BMS-536924]
Test: as above
Settings: top dose 4 µM; screen: GDSC drug entry 1091; top dose inferred
Experimental: as §1

Cell Line	AUC	IC50
ES6 (Ewing sarcoma, adherent)	0.922	> 4 µM
ES7 (Ewing sarcoma, adherent)	0.922	> 4 µM
ES-2 (ovary, adherent)	0.99	> 4 µM
ETK-1 (biliary tract, adherent)	0.878	> 4 µM
EVSA-T (breast, adherent)	0.934	> 4 µM
EW-1 (Ewing sarcoma, semi-adherent)	0.914	> 4 µM
EW-11 (Ewing sarcoma, adherent)	0.592	0.482 µM
EW-16 (Ewing sarcoma, adherent)	0.767	1.56 µM
EW-24 (Ewing sarcoma, semi-adherent)	0.898	3.96 µM
EoL-1-cell (haematopoietic neoplasm, suspension)	0.715	0.928 µM
